# Reference: PubChem BioAssay (NCATS)
# This list was built around the results that the source calls inconclusive (neither active nor inactive); the mix of calls is not that of the screen. For part of these data: Potencies of inconclusive entries are left out as doubtful fits. The source made the active and inactive calls. Unless noted, calls follow the shape of the dose curve; as a rule, active = well fitted curve in the direction sought with a large enough effect; inconclusive = small, poorly fitted or top-dose-only effect, or another doubt; inactive = no such curve, though single readings can be large; an effect the other way counts as inactive or inconclusive.
# How the values were obtained:
# [1] = molecular target: DNA polymerase eta (Homo sapiens) (UniProt Q9Y253); experiment: qHTS for Inhibitors of Polymerase Eta: Confirmatory Assay for Cherry-picked Compounds (AID 720502); conditions: Pol eta primer extension, TAMRA/BHQ fluorescence, 10 min; also: potency is read from the fitted curve at half-maximal effect
# Summary of the method: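 Human Pol eta (10 nM) was preincubated with compounds for 15 min at room temperature before adding 50 nM (final) DNA substrate: primer plus TAMRA reporter strand annealed to a BHQ-2-labeled template. Fluorescence (ex 525/em 598 nm) was read at 0 and 10 min.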
# [2] = molecular target: Rap guanine nucleotide exchange factor 3 (Homo sapiens) (UniProt O95398); experiment: Confirmatory qHTS for antagonist of cAMP-regulated guanine nucleotide exchange factor 3 (EPAC1) (AID 1645880); conditions: EPAC1 Rap1B-BODIPY-GDP exchange, fluorescence; activity, negative = inhibition: at 115 µM (top of the series); also: potency is read from the fitted curve at half-maximal effect; nearly all actives have a fitted effect of over 55% in size
# Summary of the method: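 Nucleotide exchange uses 100 nM EPAC1, 250 nM RAP1B-BODIPY-GDP and 50 uM GDP, with compounds in a concentration-titration series. After 5 min at room temperature, fluorescence (480 nm ex/540 nm em) is read every 5 min for 30 min. Data are normalized to control ATA and DMSO.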
# [3] = molecular target: Rap guanine nucleotide exchange factor 4 (Homo sapiens) (UniProt Q8WZA2); experiment: Confirmatory qHTS for antagonist of cAMP-regulated guanine nucleotide exchange factor 4 (EPAC2) (AID 1645885); conditions: EPAC2 Rap1B-BODIPY-GDP exchange fluorescence, biochemical; activity change, negative = inhibition: at 12.7 µM (top of the series) unless noted; series mostly up to 114 µM; also: potency is read from the fitted curve at half-maximal effect; nearly all actives have a fitted effect of over 25% in size
# [4] = molecular target: Rap guanine nucleotide exchange factor 3 (Homo sapiens) (UniProt O95398); experiment: Counterscreen qHTS for agonist of cAMP-regulated guanine nucleotide exchange factor 3 (EPAC1) (AID 1645889); conditions: EPAC1 Rap1B-BODIPY-GDP exchange, fluorescence; activation: at 154 µM (top of the series) unless noted; also: nearly all actives have a fitted effect of over 40% in size; also: potency is read from the fitted curve at half-maximal effect; as to activation: % of control where 0% means no effect
# Summary of the method: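 Measured: fluorescence of BODIPY-GDP bound to Rap1B, which falls as exchange proceeds. Conditions include 50 uM competing GDP, 5 and 30 min reads, and a later cAMP challenge for antagonist detection.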
# [5] = qHTS Assay for the Inhibitors of L3MBTL1: Hit Validationin AlphaScreen Counterscreen (AID 602224); conditions: signal inhibition; series mostly up to 57.1 µM; also: potency is read from the fitted curve at half-maximal effect
# Summary of the method: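 Artifact counterscreen: b-His6 1 nM, streptavidin donor + Ni-chelate acceptor beads 10 ug/mL each, cpd pin-transferred, 15 min RT, then beads 30 min RT dark, AlphaScreen read.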
# [6] = molecular target: DNA polymerase iota (Homo sapiens) (UniProt Q9UNA4); experiment: qHTS for Inhibitors of Polymerase Iota: Confirmatory Assay for Cherry-picked Compounds (AID 720496); conditions: Pol iota primer extension, TAMRA/BHQ fluorescence; also: potency is read from the fitted curve at half-maximal effect
# Summary of the method: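 Recombinant human Pol iota (10 nM) was preincubated with compound for 15 min at room temperature, then 50 nM final primer/template substrate was added; the substrate carried a TAMRA-labeled reporter strand and a BHQ-2-quenched template. Fluorescence was read at 0 and 10 min.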
# [7] = molecular target: DNA polymerase kappa (Homo sapiens) (UniProt Q9UBT6); experiment: qHTS for Inhibitors of Polymerase Kappa: Confirmatory Assay for Cherry-picked Compounds (AID 720501); conditions: purified Pol-kappa, fluorescent strand-displacement substrate; also: potency is read from the fitted curve at half-maximal effect
# Summary of the method: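 Human Pol-kappa, dispensed at 10 nM, was preincubated with compounds for 15 min at room temperature. Reactions were started with primer/template substrate (50 nM final) carrying a TAMRA reporter strand and BHQ-2-quenched template, and fluorescence (ex 525/em 598 nm) was read at 0 and 10 min.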
# [8] = AP1 Signaling Pathway (AID 357; active = well fitted curve in either direction with a large enough effect, not every such curve was filed as active; inconclusive = small, poorly fitted or top-dose-only effect, or another doubt; also: top concentration of the series differs between compounds; % is scaled to controls: 0 for no effect and ±100 for the full control effect); conditions: ME-180 AP-1-bla reporter, EGF-induced, beta-lactamase ratio, 5 h; at 7.69 µM (top of the series) unless noted
# Summary of the method: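 ME-180 cells with beta-lactamase reporter under AP-1 response element, stimulated with EC50 EGF; compounds tested in titration series, 5 h at 37 °C. CCF4 substrate added 2.5 h at room temperature; 460/530 nm emission ratio gave %activity and AC50.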
# [9] = molecular target: Cytochrome P450 1A2 (Homo sapiens) (UniProt P05177); experiment: p450-cyp1a2 (AID 410; calls by dose curve;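 also: top concentration of the series differs between compounds; -100% = full effect of reference inhibitor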); conditions: recombinant CYP1A2, luciferin-ME demethylation, luminescence; series mostly up to 57 µM
# Summary of the method: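 Inhibition was calculated relative to 57 uM furafylline (full inhibition). The reaction used human CYP1A2 at 20nM with Luciferin-ME at its Km, 100uM, driven by an NADPH-regenerating system for 60 min at room temperature.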
# [10] = Stat Signaling Pathway (AID 446; active = well fitted curve in either direction with a large enough effect, not every such curve was filed as active; inconclusive = small, poorly fitted or top-dose-only effect, or another doubt;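 also: ME-180 cervical cancer cells given 40 pM IL-6 alongside compound; SIE-controlled beta-lactamase reporter measured as 460/530 nm FRET emission ratio; top concentration of the series differs between compounds; % is scaled to controls: 0 for no effect and ±100 for the full control effect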); conditions: ME-180 SIE beta-lactamase reporter, IL-6 stimulated, 5 h; at 7.69 µM (top of the series) unless noted
# Summary of the method: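 ME-180 SIE-bla cells; overnight plating; cpd + IL-6 40 pM, 5 h, 37 C; LiveBLAzer 2.5 h RT; 460/530 nm emission ratio. Normalized to 300 pM IL-6 and 125 nM JAK inhibitor controls.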
# [11] = molecular target: Cytochrome P450 3A4 (Homo sapiens) (UniProt P08684); experiment: qHTS Assay for Inhibitors and Substrates of Cytochrome P450 3A4 (AID 884); conditions: recombinant CYP3A4, Luciferin-PPXE luminescence; activity change, negative = inhibition: at 57.1 µM (top of the series); also: potency is read from the fitted curve at half-maximal effect; nearly all actives have a fitted effect of over 50% in size
# Summary of the method: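 20 nM human CYP3A4 with 25 uM Luciferin-PPXE (at KM) in 200 mM KPO4, preincubated 10 min with compound; NADPH regeneration started a 60 min RT reaction. Luciferin detected by luminescence, normalized to 57 uM ketoconazole as full inhibition.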
# [12] = molecular target: Dual specificity protein kinase CLK4 (Homo sapiens) (UniProt Q9HAZ1); experiment: qHTS Assay for Inhibitors of CDC-like Kinase 4 (ADP-FP Assay) (AID 1795); conditions: Transcreener ADP fluorescence polarization; series mostly up to 50 µM;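 also: recombinant human CLK4 phosphorylating RS repeat peptide at 1 µM ATP; % is scaled to controls: 0 for no effect and ±100 for the full control effect; nearly all actives have a fitted effect of over 60% in size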
# Summary of the method: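 Kinase activity was measured as ADP production using Transcreener orange tracer (4 nM) and ADP antibody (1 ug/mL) fluorescence polarization, with ADP calculated from a calibration curve. The 1 h reaction contained 6.25 nM Clk4, 1 uM ATP and 100 uM RS peptide at pH 7.5 with Mg2+.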
# Tags tell the direction and shape of the fitted curve.
# Chain of UniProt Q8WZA2 (Q8WZA2 whole entry, looked up): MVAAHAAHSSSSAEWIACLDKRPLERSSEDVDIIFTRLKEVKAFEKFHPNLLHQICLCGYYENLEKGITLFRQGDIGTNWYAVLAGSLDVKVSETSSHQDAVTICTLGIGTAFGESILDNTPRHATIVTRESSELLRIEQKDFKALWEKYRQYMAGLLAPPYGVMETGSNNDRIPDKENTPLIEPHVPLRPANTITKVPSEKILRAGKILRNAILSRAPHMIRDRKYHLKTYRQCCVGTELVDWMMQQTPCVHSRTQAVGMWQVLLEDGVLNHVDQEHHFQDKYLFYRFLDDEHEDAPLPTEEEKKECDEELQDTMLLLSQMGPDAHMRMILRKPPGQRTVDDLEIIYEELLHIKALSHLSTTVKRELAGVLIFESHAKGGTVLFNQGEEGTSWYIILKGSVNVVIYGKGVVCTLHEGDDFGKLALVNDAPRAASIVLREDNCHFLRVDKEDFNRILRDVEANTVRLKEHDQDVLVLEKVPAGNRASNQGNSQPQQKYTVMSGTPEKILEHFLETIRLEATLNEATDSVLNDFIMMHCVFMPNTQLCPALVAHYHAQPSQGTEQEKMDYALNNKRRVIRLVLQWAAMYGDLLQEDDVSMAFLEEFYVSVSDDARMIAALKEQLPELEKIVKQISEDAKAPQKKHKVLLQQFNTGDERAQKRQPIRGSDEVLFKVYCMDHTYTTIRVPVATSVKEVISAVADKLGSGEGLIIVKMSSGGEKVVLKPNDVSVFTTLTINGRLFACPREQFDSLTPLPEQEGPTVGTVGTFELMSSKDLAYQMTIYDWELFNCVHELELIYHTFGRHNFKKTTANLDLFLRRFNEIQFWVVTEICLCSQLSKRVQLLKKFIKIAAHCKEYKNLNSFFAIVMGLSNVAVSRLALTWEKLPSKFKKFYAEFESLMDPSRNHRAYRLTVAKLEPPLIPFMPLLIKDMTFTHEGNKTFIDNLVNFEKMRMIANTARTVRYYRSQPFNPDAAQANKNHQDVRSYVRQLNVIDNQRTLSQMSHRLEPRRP
# Chain of UniProt Q9Y253 (Q9Y253 whole entry, looked up): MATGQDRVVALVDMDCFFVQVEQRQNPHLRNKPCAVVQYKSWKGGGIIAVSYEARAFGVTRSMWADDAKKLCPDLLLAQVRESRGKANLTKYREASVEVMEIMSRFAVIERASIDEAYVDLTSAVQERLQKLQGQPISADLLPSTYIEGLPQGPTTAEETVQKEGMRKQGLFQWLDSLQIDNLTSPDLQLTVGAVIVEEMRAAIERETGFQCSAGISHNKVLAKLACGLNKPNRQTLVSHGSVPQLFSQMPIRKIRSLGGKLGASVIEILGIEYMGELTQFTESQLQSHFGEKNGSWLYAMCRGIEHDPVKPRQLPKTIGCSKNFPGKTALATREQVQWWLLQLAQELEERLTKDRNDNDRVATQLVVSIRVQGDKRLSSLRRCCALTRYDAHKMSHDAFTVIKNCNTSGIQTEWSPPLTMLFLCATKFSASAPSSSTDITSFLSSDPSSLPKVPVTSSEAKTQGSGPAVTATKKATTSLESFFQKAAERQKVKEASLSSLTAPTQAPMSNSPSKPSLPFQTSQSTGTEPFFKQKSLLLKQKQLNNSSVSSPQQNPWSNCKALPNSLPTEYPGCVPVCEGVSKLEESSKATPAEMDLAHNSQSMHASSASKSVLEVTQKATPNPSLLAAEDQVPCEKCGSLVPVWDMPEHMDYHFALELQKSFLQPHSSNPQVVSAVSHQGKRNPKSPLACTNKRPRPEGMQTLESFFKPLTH
# Chain of UniProt O95398 (O95398 whole entry, looked up): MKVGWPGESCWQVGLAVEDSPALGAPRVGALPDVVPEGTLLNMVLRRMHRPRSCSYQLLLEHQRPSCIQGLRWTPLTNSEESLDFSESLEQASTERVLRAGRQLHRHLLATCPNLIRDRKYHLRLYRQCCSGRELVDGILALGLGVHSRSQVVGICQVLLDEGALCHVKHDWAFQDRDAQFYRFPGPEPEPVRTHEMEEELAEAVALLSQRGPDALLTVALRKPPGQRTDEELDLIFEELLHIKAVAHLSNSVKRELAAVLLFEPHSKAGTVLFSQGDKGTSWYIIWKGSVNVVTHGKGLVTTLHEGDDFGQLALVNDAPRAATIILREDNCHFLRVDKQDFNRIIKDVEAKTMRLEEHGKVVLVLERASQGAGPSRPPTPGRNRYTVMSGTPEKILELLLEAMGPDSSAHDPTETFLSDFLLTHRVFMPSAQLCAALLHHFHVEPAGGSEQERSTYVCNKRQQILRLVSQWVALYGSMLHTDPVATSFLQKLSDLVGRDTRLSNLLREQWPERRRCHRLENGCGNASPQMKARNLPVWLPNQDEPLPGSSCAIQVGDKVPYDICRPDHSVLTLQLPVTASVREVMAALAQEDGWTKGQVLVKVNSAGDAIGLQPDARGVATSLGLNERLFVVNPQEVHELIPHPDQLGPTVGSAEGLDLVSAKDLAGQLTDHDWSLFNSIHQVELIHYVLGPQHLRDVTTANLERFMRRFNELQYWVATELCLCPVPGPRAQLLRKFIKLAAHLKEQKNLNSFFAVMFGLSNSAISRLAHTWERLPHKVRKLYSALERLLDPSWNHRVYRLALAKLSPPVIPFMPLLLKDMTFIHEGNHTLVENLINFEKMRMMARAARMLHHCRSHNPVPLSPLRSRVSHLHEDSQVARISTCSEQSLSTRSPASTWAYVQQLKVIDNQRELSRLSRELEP
# Chain of UniProt Q9UNA4 (Q9UNA4 whole entry, looked up): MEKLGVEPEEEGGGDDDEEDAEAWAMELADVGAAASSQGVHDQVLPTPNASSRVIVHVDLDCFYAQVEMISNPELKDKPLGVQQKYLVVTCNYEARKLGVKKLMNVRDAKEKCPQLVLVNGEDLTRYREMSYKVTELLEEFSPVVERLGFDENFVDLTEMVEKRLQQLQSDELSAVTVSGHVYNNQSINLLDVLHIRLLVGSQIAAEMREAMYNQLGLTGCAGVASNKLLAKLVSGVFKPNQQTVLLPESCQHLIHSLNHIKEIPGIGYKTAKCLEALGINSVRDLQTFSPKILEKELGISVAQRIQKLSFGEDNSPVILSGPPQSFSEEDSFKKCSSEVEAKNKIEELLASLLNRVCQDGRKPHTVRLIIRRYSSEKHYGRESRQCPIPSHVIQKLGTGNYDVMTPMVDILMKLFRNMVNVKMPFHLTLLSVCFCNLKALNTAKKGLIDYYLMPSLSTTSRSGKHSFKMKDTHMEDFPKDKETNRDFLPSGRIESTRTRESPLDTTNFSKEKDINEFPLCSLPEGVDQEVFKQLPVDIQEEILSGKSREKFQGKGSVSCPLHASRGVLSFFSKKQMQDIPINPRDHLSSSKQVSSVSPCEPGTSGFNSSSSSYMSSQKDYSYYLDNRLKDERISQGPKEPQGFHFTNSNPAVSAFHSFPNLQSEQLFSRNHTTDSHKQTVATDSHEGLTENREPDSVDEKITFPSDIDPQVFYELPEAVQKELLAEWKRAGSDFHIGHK
# Chain of UniProt Q9UBT6 (Q9UBT6 whole entry, looked up): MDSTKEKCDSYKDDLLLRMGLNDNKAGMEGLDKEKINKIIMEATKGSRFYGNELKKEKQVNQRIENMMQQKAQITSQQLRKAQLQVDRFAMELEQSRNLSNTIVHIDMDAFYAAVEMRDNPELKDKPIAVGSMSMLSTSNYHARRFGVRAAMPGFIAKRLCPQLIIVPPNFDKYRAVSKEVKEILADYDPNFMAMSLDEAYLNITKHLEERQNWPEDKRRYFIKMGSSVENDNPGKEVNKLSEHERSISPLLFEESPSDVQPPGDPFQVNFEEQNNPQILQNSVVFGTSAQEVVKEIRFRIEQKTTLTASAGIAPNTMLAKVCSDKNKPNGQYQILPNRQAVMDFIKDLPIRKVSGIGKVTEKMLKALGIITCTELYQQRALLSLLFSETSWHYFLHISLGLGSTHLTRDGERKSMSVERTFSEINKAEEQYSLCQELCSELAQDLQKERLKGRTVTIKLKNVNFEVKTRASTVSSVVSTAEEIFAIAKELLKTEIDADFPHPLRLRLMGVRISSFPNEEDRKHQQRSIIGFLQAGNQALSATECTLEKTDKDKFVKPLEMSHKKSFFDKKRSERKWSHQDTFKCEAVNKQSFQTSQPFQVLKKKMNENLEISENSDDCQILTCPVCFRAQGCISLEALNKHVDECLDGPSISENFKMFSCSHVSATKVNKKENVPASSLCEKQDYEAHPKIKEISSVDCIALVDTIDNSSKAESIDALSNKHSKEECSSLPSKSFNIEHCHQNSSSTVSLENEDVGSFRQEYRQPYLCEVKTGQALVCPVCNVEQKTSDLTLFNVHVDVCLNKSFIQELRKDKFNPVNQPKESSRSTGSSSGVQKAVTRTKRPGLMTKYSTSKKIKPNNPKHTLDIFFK
# Chain of UniProt Q9HAZ1 (Q9HAZ1 whole entry, looked up): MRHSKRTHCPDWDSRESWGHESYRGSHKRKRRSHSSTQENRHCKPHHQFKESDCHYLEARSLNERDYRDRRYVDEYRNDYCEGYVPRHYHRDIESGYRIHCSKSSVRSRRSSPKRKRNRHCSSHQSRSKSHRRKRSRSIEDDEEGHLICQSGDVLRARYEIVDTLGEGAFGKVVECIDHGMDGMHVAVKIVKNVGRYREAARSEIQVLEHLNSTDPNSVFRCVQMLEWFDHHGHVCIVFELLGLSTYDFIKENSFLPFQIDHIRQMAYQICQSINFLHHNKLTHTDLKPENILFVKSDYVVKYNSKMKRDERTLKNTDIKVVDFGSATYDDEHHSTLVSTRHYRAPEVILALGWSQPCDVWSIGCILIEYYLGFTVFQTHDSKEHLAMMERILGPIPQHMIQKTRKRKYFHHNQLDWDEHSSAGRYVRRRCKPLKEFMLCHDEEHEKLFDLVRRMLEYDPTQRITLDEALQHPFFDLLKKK
structure (smiles),measurement,setting,value
CCc1ccc(S(=O)(=O)Nc2cc(SCC(=O)O)c(O)c3ccccc23)cc1,Potency,[1],"inconclusive [inhibitor, single point]"
same,Potency,[2],"inconclusive [inhibitor, partial curve]"
same,Potency,[3],"inconclusive [inhibitor, partial curve]"
same,Potency,[4],active: 14.1 µM
COc1cc(/C=C2\SC(=Nc3ccc(Cl)c(C(=O)O)c3)NC2=O)c(Br)c(Br)c1O,Potency,[5],"inconclusive [inhibitor, single point]"
same,Potency,[1],"inconclusive [inhibitor, full curve, poor fit]"
same,Potency,[2],active: 2.82 µM
same,Potency,[3],"inconclusive [inhibitor, partial curve, poor fit]"
same,activation,[4],inactive: 0.17% [at 30.8 µM]
Cc1c(C(=O)N2CCCC2)oc2ccc(Br)cc12,Potency,[1],"inconclusive [inhibitor, single point]"
same,Potency,[2],"inconclusive [inhibitor, partial curve]"
same,Potency,[3],"inconclusive [inhibitor, partial curve]"
same,Potency,[4],inactive
O=C(CCN1C(=O)/C(=C/c2ccc3c(c2)OCO3)SC1=S)Nc1ccc(C(=O)O)cc1,Potency,[6],active: 75.2 µM
same,Potency,[2],"inconclusive [inhibitor, full curve]"
same,Potency,[3],"inconclusive [inhibitor, full curve, poor fit]"
same,activation,[4],inconclusive: 23.6% [activator]
CC(/C=C1\SC(=S)N(NS(=O)(=O)c2ccc(C)cc2)C1=O)=C\c1ccccc1,Potency,[1],"inconclusive [inhibitor, single point]"
same,Potency,[2],active: 26.9 µM
same,Potency,[3],active: 47.8 µM
same,activation,[4],inconclusive: 28.7% [activator]
CC1=NN(c2nc(-c3ccccc3)cs2)C(=O)C1,Potency,[1],"inconclusive [inhibitor, single point]"
same,Potency,[2],"inconclusive [inhibitor, partial curve]"
same,Potency,[3],"inconclusive [inhibitor, single point]"
same,Potency,[4],inactive
CCC(C)(C)C1CCc2c(sc(NC(=O)c3ccccc3C(=O)O)c2C#N)C1 (stereo unspecified),Potency,[7],"inconclusive [inhibitor, single point]"
same,Potency,[2],active: 75.7 µM
same,Potency,[3],"inconclusive [inhibitor, full curve, poor fit]"
same,Potency,[4],inactive
O=S(=O)(O)c1cc(O)c2cc(Nc3ccccc3)ccc2c1,Potency,[6],active: 29.9 µM
same,Potency,[2],active: 37.9 µM
same,Potency,[3],"inconclusive [inhibitor, partial curve]"
same,Potency,[4],inactive
N#Cc1c(-c2ccccc2)nc(SCC(=O)Nc2ccc(OC(F)(F)Cl)cc2)[nH]c1=O,Potency,[7],"inconclusive [inhibitor, single point]"
same,Potency,[2],active: 67.5 µM
same,Potency,[3],active: 12 µM
same,Potency,[4],inactive
COc1ccc(N(C(=O)c2snc(C(N)=O)c2N)C(C(=O)NC2CCCC2)c2cccs2)cc1OC (stereo unspecified),Potency,[6],"inconclusive [inhibitor, partial curve, poor fit]"
same,Potency,[2],active: 33.8 µM
same,Potency,[3],"inconclusive [inhibitor, full curve]"
same,Potency,[4],inactive
COc1cc(C(c2c(C(=O)O)[nH]c3ccccc23)c2c(C(=O)O)[nH]c3ccccc23)ccc1OCc1ccccc1,Potency,[6],"inconclusive [inhibitor, single point]"
same,Potency,[1],"inconclusive [inhibitor, single point]"
same,Potency,[2],active: 15.1 µM
same,Potency,[3],"inconclusive [inhibitor, single point]"
same,Potency,[4],inactive
COc1ccc(-c2nc3cnc(Nc4cccc(OC)c4)nc3n(Cc3cccs3)c2=O)cc1,"activity change, negative = inhibition",[8],inconclusive: -36.5% [inhibitor]
same,Potency,[9],inactive
same,"activity, negative = inhibition",[10],inconclusive: 5.52% [activator]
same,Potency,[11],"inconclusive [inhibitor, partial curve]"
same,Potency,[12],inactive
